# Test results taken from PubChem BioAssay AID1865 (National Center for Advancing Translational Sciences (NCATS), 2009).
# Hit rate of the full screen: of about 280,000 compounds, about 540 (0.19%) were called active. Another 2% or so got no clear call; they are omitted. Calls follow the shape of the dose curve; as a rule, active = well fitted activation curve with a large enough effect; inconclusive = small, poorly fitted or top-dose-only effect; inactive = flat fitted curve, though single readings scatter. The entries are a selection whose mix differs from that of the whole data set.
# Test: Quantitative High-Throughput Screen for Regulators of Epigenetic Control; also: % of control where 0% means no effect; nearly all actives have a fitted effect of over 60% in size
# Settings: murine LDR cells, GFP reporter derepression, 30 h; series mostly up to 53.9 µM; GFP activation: at the top concentration
# From the text: NIH Molecular Libraries Screening Centers Network [MLPCN] NIH Chemical Genomics Center [NCGC] MLSCN Grant: 1 X01 MH079860-01 Assay Provider: Elisabeth D. Martinez, University of Texas SW Medical Center NCGC Assay Overview: The Locus Derepression (LDR) assay detects the derepression or induction of a GFP reporter that is stably integrated in a genomic region of murine cells that is presumably silenced. Transcription of the GFP reporter is controlled by a CMV promoter, which normally is constitutively active. However, this cell line, termed LDR, was selected for lack of constitutive production of GFP. GFP production can be induced by incubating the cells with histone deacetylase or DNA methyltransferase inhibitors (Martinez et al., 2006). Compounds that derepress or induce this reporter locus are identified by enumerating GFP positive cells using a laser-scanning microplate cytometer (Auld et al., 2006). This assay was screened against the MLSMR earlier (AID 597; (Johnson et al., 2008) and has been rescreened here against the expanded collection.
# NCGC Assay Protocol Summary: Three hundred LDR cells in 5 uL per well were dispensed into black, clear-bottom 1536-well plates. Twenty-three nL compound was transferred to the assay plate and cells were incubated 30 hours at 37 C. Medium was removed, cells were washed two times with PBS, and GFP-positive cells were enumerated as fluorescent objects between the sizes of 20 to 120 um width and depth using an Acumen Explorer. References Auld, DS, Johnson, RL, Zhang, YQ, Veith, H, Jadhav, A, Yasgar, A, Simeonov, A, Zheng, W, Martinez, ED, Westwick, JK, Austin, CP, Inglese, J (2006). Fluorescent protein-based cellular assays analyzed by laser-scanning microplate cytometry in 1536-well plate format. Methods Enzymol 414: 566-89. Johnson, RL, Huang, W, Jadhav, A, Austin, CP, Inglese, J, Martinez, ED (2008). A quantitative high-throughput screen identifies potential epigenetic modulators of gene expression. Anal Biochem 375: 237-48. Martinez, ED, Dull, AB, Beutler, JA, Hager, GL (2006). High-content fluorescence-based screening for epigenetic modulators. Methods Enzymol 414: 21-36.
Compound,GFP activation,Potency
NCCCP(=O)(O)CC1CCCCC1,inactive: 1.05%,
COc1ccc2c3c([nH]c2c1)C(C)=NCC3,,inactive
CCC1(c2ccc(N)cc2)CCC(=O)NC1=O (stereo not drawn),inactive: -1.33%,
CC[C@@]1(c2ccc(N)cc2)CCC(=O)NC1=O,inactive: 0% [at 16.9 µM],
c1ccc2c(c1)[I+]c1ccccc1-2,,inactive
COc1cccc(N2C(=O)NC(=O)/C(=C/c3ccc([N+](=O)[O-])s3)C2=O)c1,inactive: 0.224%,
C[C@]12CC[C@H](O)CC1=CCC1C2CC[C@]2(C)C(=O)CC[C@@H]12 (stereo partly drawn),,inactive
O=c1oc(Cl)c(Cl)c2ccccc12,inactive: 2.94%,
Cc1nn(C)c(C)c1P(=S)(c1c(C)nn(C)c1C)N(C)C,inactive: -4.1%,
COc1ccc(N2C(=O)NC(=O)/C(=C/c3ccc([N+](=O)[O-])s3)C2=O)cc1,inactive: -1.9%,
CC(C)(c1ccc(OCC2CO2)cc1)c1ccc(OCC2CO2)cc1 (stereo not drawn),,inactive
CC(C)[C@@]1(NC(=O)[C@H]2CC3c4cccc5[nH]cc(c45)C[C@H]3N(C)C2)O[C@@]2(O)C3CCCN3C(=O)[C@@H](Cc3ccccc3)N2C1=O (stereo partly drawn),,inactive
COC(=O)C1=C(C)NC(C)=C(C(=O)OC)C1c1ccccc1[N+](=O)[O-],,inactive
COc1cc(C(C#N)N2CCOCC2)ccc1O (stereo not drawn),inactive: 2.32%,
COc1ccc2c(c1)[nH]c1c(C)nccc12,,inactive
COc1ccc(C[C@H]2NC[C@H](O)[C@H]2OC(C)=O)cc1,inactive: 1.89%,
CC(C)c1cc2c(c(O)c1O)[C@]1(C(=O)O)CCCC(C)(C)C1CC2 (stereo partly drawn),inactive: -1.33%,
CC[C@H]1CN2CCc3cc(OC)c(OC)cc3[C@@H]2C[C@@H]1C[C@H]1NCCc2cc(OC)c(OC)cc21,inactive: -0.962%,
C=CCN1C(=O)/C(=C/c2ccc(N3CCOCC3)o2)C(=O)NC1=S,inactive: 0.917%,
CC[C@@H]1CN2CCc3cc(OC)c(OC)cc3[C@@H]2C[C@@H]1C[C@H]1NCCc2cc(OC)c(OC)cc21,inactive: 2.99%,
CC1=C2CC3C(CC=C4C[C@@H](O)CC[C@@]43C)[C@@H]2CC[C@]12O[C@@H]1C[C@H](C)CN[C@H]1[C@H]2C (stereo partly drawn),inactive: 0%,
COc1ccc(C[C@H]2NC[C@H](O)[C@@H]2OC(C)=O)cc1,inactive: 3.75%,
O=C1CCC[C@H]2[C@@H]3CCCN4CCC[C@H](CN12)[C@H]34,inactive: 1.54%,
CC1=CC(=O)C2=C(C)C[C@H](O)[C@H]3[C@H](C)C(=O)O[C@@H]3C12 (stereo partly drawn),inactive: -0.929%,
O=C1NC(=O)N(c2ccccc2)C(=O)/C1=C\c1ccc([N+](=O)[O-])s1,inactive: -4.17%,
Oc1cc2c(cc1O)[C@H]1c3ccccc3CN[C@@H]1CC2,inactive: 9.62%,
COc1ccc(OC)c(N2C(=O)NC(=O)/C(=C/c3ccc([N+](=O)[O-])s3)C2=O)c1,inactive: -0.129%,
O=C1NC(=O)N(CCc2ccc(F)cc2)C(=O)/C1=C\C=C\c1ccccc1,inactive: 10.2%,
